Results reported in the RNAGym collection of RNA variant scans (doi:10.7554/elife.90254).
The source gives no read counts; variants with many changes may rest on few reads.

B1: LINE1-mini (parent)
chain: GGCAGAGCUCAACACAGCGUGGCAAAGUGGCUGUGGCUAGACUGCC

Variants of: B1
Assay: self-cleavage, relative activity (ratio to wild type); higher = more cleavage; in vitro, sequencing; the parent is a self-cleaving ribozyme
A25G G29A C37U showed a self-cleavage of 0.02.
Work on C18A G19A C42U yielded a self-cleavage of 0.52.
Variant A4U A16C U28G has a self-cleavage of 0.05.
C15A G17U G19U C37A showed a self-cleavage of 0.02.
In the case of U20C G22U U32A, the self-cleavage is reported as 0.05.
With G17U G30C U34C the self-cleavage was 0.03.
In the case of A4U A12G C18G G19A G27U U28A, the self-cleavage is reported as 0.01.
Work on A12U A14U A24C G29C U43A yielded a self-cleavage of 0.04.
Variant A14G G36A C42U has a self-cleavage of 0.08.
Variant C8G U20G G33A G36A C46U has a self-cleavage of 0.05.
G2A A6C A16G A24C gave a self-cleavage of 0.15.
A11C G19U C23U U34C C37G showed a self-cleavage of 0.01.
With C10A C15U C37G C42A the self-cleavage was 0.28.
With G21A G27C G40A U43A G44A the self-cleavage was 0.04.
With G2U U9G A11U G19U G40A the self-cleavage was 0.01.
Variant C13G G21U A39G has a self-cleavage of 0.04.
A14G A16G C42A C46U gave a self-cleavage of 0.03.
With A6U A11C C13A U38A the self-cleavage was 0.
C15G G30U G33U showed a self-cleavage of 0.04.
For G2C A14C G27A, the self-cleavage was 0.04.
Work on A6U C37U U43A yielded a self-cleavage of 0.12.
Variant C3U G17A U20C U32A has a self-cleavage of 0.05.
Work on C3A G22C G35U yielded a self-cleavage of 0.15.
Variant G7A G17C G22U has a self-cleavage of 0.17.
In the case of G7A C8U G21C G29C U32A, the self-cleavage is reported as 0.11.
For G1U G7U A26G, the self-cleavage was 0.19.
Variant A11C C15U G19C G27U has a self-cleavage of 0.01.
For A11U A12U C18U G22A A26U, the self-cleavage was 0.04.
With C15U C23A G30C C42A the self-cleavage was 0.06.
For A12C U32A U38A U43C C45G, the self-cleavage was 0.01.
C3G A25G C37A A41G gave a self-cleavage of 0.16.
For G2A C8G C23U, the self-cleavage was 0.09.
Variant C3G G17U U20A G22A has a self-cleavage of 0.02.
With U9C U34A C42A the self-cleavage was 0.01.
In the case of A12G G17U A41U, the self-cleavage is reported as 0.02.
Variant A6U A14U C31U has a self-cleavage of 0.06.
Variant G19C U32G U43A has a self-cleavage of 0.11.
With C8U A11U G22A G30U G36A the self-cleavage was 0.02.
With C3A A6U C45A the self-cleavage was 0.38.
In the case of G7A U9C G29A, the self-cleavage is reported as 0.07.
For C10G U20C C31A G40C, the self-cleavage was 0.
A6C C10G G36C U38C A39C gave a self-cleavage of 0.01.
C8G A14C U38A G44A gave a self-cleavage of 0.03.
Variant G2U G22A C23U A24U G30U U38G has a self-cleavage of 0.01.
A14U U32A U34G showed a self-cleavage of 0.09.
Work on G5C C10G U43G yielded a self-cleavage of 0.
G1A A4G A14U G30U gave a self-cleavage of 0.08.
In the case of A4U A14C U20A U38A A41U C42G C46A, the self-cleavage is reported as 0.01.
G1U C8U G36U showed a self-cleavage of 0.12.
With G5A G17U G21U the self-cleavage was 0.08.
A14U C15G G22U C31A showed a self-cleavage of 0.06.
With G1C C10A G22U G33U the self-cleavage was 0.03.
Variant G1U C13G U32C U38A has a self-cleavage of 0.05.
With G1C C3U A14U G17C G27A G44C the self-cleavage was 0.03.
Work on C13G G19A U32A yielded a self-cleavage of 0.03.
With G33A U38A C42U the self-cleavage was 0.02.
G5C A11U A24U G35U showed a self-cleavage of 0.
Work on A26C U28A U32G G33U yielded a self-cleavage of 0.03.
In the case of C13U U32C G44C, the self-cleavage is reported as 0.02.
Variant G1U A11G A25C G27U A41C has a self-cleavage of 0.
Variant G1C C10A C23A has a self-cleavage of 0.01.
In the case of G2A U20A A24U U28A G29A, the self-cleavage is reported as 1.77.
Variant A4C C13G A25U G36U A39U has a self-cleavage of 0.07.
With G1U C3G C10A G35U U43C the self-cleavage was 0.01.
Variant G5U C10G U32G G35C has a self-cleavage of 0.
In the case of C10A C42A U43A, the self-cleavage is reported as 0.05.
Variant C3U G7C G21U U43C C46A has a self-cleavage of 0.13.
C3A A4U A11C G27U gave a self-cleavage of 0.04.
In the case of A24U U38G G40U, the self-cleavage is reported as 0.07.
In the case of C10U A26C G36A, the self-cleavage is reported as 0.06.
In the case of U34G G35U U43G, the self-cleavage is reported as 0.1.
In the case of A6U C42A C45A, the self-cleavage is reported as 0.01.
Work on C3A A25U G27U G40U yielded a self-cleavage of 0.06.
With G7U U34G C46U the self-cleavage was 0.04.
Variant G1U G35U G36U has a self-cleavage of 0.09.
In the case of C8G G27U U28G G40U, the self-cleavage is reported as 0.04.
A11U U20C G22C G27U G29U G30A G44U gave a self-cleavage of 0.01.
Variant G2A C3U C10G A16C G33U has a self-cleavage of 0.03.
Variant A14U G30U G40C has a self-cleavage of 0.1.
In the case of C18G U34G G35U, the self-cleavage is reported as 0.03.
In the case of A6G C18G G27U, the self-cleavage is reported as 0.2.
In the case of C15G U20A C31A, the self-cleavage is reported as 0.05.
Work on C3U U20C C31A U43A yielded a self-cleavage of 0.1.
In the case of G17A C23U G33U A41C, the self-cleavage is reported as 0.01.
Variant A25G G30C C31A G35C A41G has a self-cleavage of 0.01.
C3G A26U G35U C45U gave a self-cleavage of 0.16.
G1U A4U A11C G22U C23A G33U C45A gave a self-cleavage of 0.02.
In the case of C10U A24U C45A, the self-cleavage is reported as 0.06.
With G7C G21U C23U the self-cleavage was 0.43.
For G17C A39U C46A, the self-cleavage was 0.06.
Work on G5C C10A A14G U20C C23A U28A G29U A41U C42G yielded a self-cleavage of 0.05.
Work on U9C C23A G40U yielded a self-cleavage of 0.01.
Variant G22U C31G U34A has a self-cleavage of 0.03.
In the case of G17U G27C G35A, the self-cleavage is reported as 0.07.
In the case of G7U U34A C42U, the self-cleavage is reported as 0.03.
With G7A C15G G29A the self-cleavage was 0.11.
A14C C15A C37G gave a self-cleavage of 0.02.
Work on C13U G17U C18U A25G U28C C31U yielded a self-cleavage of 0.07.
U9G C15A A16U showed a self-cleavage of 0.04.
C8U G21A G35U U38A gave a self-cleavage of 0.47.
For C15A G36A A39U G40U U43A, the self-cleavage was 0.04.
For G1C G5C G21U C31U, the self-cleavage was 0.
G2A C13A G19U U34A C45G showed a self-cleavage of 0.12.
With C3A G5U A14U the self-cleavage was 0.08.
A12C U28A G29U U32G gave a self-cleavage of 0.03.
Variant A11C C23U G29C G44U has a self-cleavage of 0.02.
Work on A14C G22U G40A yielded a self-cleavage of 0.02.
Variant G1A U20A G30A A41G has a self-cleavage of 0.
Variant G2U A6U G19C A41U has a self-cleavage of 0.06.
C13G G29C G40U gave a self-cleavage of 0.16.
With C8G G21A C46A the self-cleavage was 0.2.
Variant G22C C45A C46A has a self-cleavage of 0.14.
A4U A25G A26C gave a self-cleavage of 0.07.
C8U A14U G21U A25G C31U gave a self-cleavage of 0.18.
Variant C13A C18A G29C G30A G40A has a self-cleavage of 0.07.
With C15G C18G C23U the self-cleavage was 0.04.
C3G A4C A6G C15A A41G gave a self-cleavage of 0.05.
Work on A26C G27U G36C yielded a self-cleavage of 0.07.
With C13A U34C G44U C46A the self-cleavage was 0.04.
For A12G C13U G19C U20C G21A C23U G30A, the self-cleavage was 0.01.
Variant A16G G22A C42U has a self-cleavage of 0.74.
In the case of G7A G22U C42A, the self-cleavage is reported as 0.18.
In the case of G1C G5A G21C C23A A24U U32C G35A, the self-cleavage is reported as 0.02.
For G5A G17A G19U G29C, the self-cleavage was 0.01.
Variant C8A C18G G40U has a self-cleavage of 0.06.
A12U C23A C31G gave a self-cleavage of 0.05.
C8U U9C C15G gave a self-cleavage of 0.05.
C23U G35A G44A showed a self-cleavage of 0.07.
In the case of G36U C42A C45A, the self-cleavage is reported as 0.07.
For C10G A24G G44U, the self-cleavage was 0.03.
Variant G2C A11C G40U A41G C42G has a self-cleavage of 0.01.
Variant G2U G29U C37U C45U has a self-cleavage of 0.05.
With C3A U9A A14U C23G G40A the self-cleavage was 0.59.
C3G A12U C15A A16C C31G G35U showed a self-cleavage of 0.04.
C18G A26U A41U showed a self-cleavage of 0.13.
In the case of G2C A11G G29A G33A A39U, the self-cleavage is reported as 0.02.
Variant C8U C42A C45U has a self-cleavage of 0.01.
C10A A11C C13U U34G A39C showed a self-cleavage of 0.06.
In the case of A6C G22U C31U U32G, the self-cleavage is reported as 0.09.
C8A A11C G29C gave a self-cleavage of 0.03.
Variant C8U A14U U20A A24C has a self-cleavage of 0.04.
U20C C37A U43A gave a self-cleavage of 0.02.
Work on G2U A6G U34C G40U yielded a self-cleavage of 0.04.
Variant C8G U9A A26U has a self-cleavage of 0.12.
A4U C8U G22C A26U U43G showed a self-cleavage of 0.4.
With C8U C18U C23G A39C the self-cleavage was 0.31.
In the case of A12G C31U U34A C46U, the self-cleavage is reported as 0.02.
With A4G G19A C37A the self-cleavage was 0.04.
C13U C15U G21C G27C G30C gave a self-cleavage of 0.11.
Variant C3A U9A G17U C42G has a self-cleavage of 0.14.
In the case of A16C G30U U34C U43A, the self-cleavage is reported as 0.01.
Variant G5C C15A C37G has a self-cleavage of 0.01.
For G2A A25U C46U, the self-cleavage was 1.11.
With C8U C10G G19C G44A the self-cleavage was 0.02.
Variant A25C G29C G35A A41C C45G has a self-cleavage of 0.01.
With G5A C10U G40C A41C G44U C45U the self-cleavage was 0.02.
With G17C C18G G21C G29U U34G the self-cleavage was 0.02.
Variant A6C C15U C45A has a self-cleavage of 0.06.
G1U U20G C31U U32G showed a self-cleavage of 0.02.
A6G G19C G21U C23U G30A U38C gave a self-cleavage of 0.02.
G2C G7U U43A C46U gave a self-cleavage of 0.53.
With A6U A12U A24G the self-cleavage was 0.15.
For C3A C18G C42G, the self-cleavage was 0.09.
Variant U9A A12C C23G C42A C45A has a self-cleavage of 0.
Work on G5A C8G G21U yielded a self-cleavage of 0.06.
For A14G A25G G44C, the self-cleavage was 0.11.
Variant C3U G19U G30U has a self-cleavage of 0.18.
